Measurements reported in ChEMBL document CHEMBL4888484, “Replenishing the malaria drug discovery pipeline: Screening and hit evaluation of the MMV Hit Generation Library 1 (HGL1) against asexual blood stage Plasmodium falciparum ,using a nano luciferase reporter read-out” (2022).
The campaign covered roughly 150,000 compounds. About 540 (0.36%) showed an effect of 50% or more. The list shows a part of the results.

tested on: Plasmodium falciparum; experiment: Primary screen in NF54 nanoGlo assay, in single point, at 2uM, 72h; a lower Z score goes with more inhibition; assay type: functional, Erythrocyte; settings: timepoint 72 hour

Row | Structure (SMILES) | % Inhibition [%] | Z score
1 | O=C(NCCCc1ccccc1)N1C2CCC1CC(n1cncn1)C2 (stereo not given) | -12 | 1.37
2 | Cc1cc(C(=O)N2CCC(Cc3ccc(CCC(=O)N4CCCC4)cc3)CC2)n(C)n1 | -9 | 1.22
3 | O=c1nc([C@H]2CCCN(c3ncnc4ccc(F)cc34)C2)[nH][nH]1 | -5 | 0.45
4 | C[C@@H]1CN(CC(=O)N2CC[C@](C)(O)[C@H](Cc3ccccc3)C2)C[C@H](C)O1 | -7 | 1.26
5 | CCC(=O)N1CCc2cc(CNC(=O)c3ccc(N(C)C)cc3)ccc21 | -11 | 1.93
6 | CC(=O)NCC1CCN(Cc2cc3cc(F)ccc3n2C)CC1 | 8 | -0.69
7 | Cc1ccccc1CNC(=O)N1C[C@H](C(=O)O)[C@@H](C2CC2)C1 | -3 | 0.59
8 | CC(=O)N1CCC(NC2(Cc3cc(CN(C)Cc4ccccc4)on3)COC2)CC1 | 17 | -1.94
9 | CS(=O)(=O)N1CCC(Oc2nc3c(F)cc(F)cc3s2)CC1 | -8 | 1.11
10 | CCN1C(=O)CC(C(=O)O)C1c1ccccc1C (stereo not given) | 3 | -0.31
11 | CC(=O)Nc1cccc(NC(=O)COc2cccc3c2CCC=C3)c1 | -10 | 0.86
12 | Cc1nc2cc(NC(=O)C(C)C)cc(C(=O)N(C)Cc3cnn(C)c3)c2n1Cc1ccccc1 | -16 | 2.09
13 | O=S(=O)(C[C@H]1CCCCO1)N1CCC(Oc2ccccc2Cl)CC1 | -7 | 1.02
14 | O=C1CCCN1C[C@H]1CCCN(C(=O)c2cn[nH]c2)C1 | 3 | -0.55
15 | O=C(Nc1nc2ccccc2[nH]1)c1ccon1 | -9 | 0.81
16 | O=C(NCC[C@H](O)c1cccc(Cl)c1)c1ccoc1 | 1 | -0.22
17 | Cc1cc(S(=O)(=O)N2CCC[C@H]2c2ccc(CN(C)C)cc2)c(C)s1 | -2 | 0.2
18 | CC(C)CCN1CCOC[C@H]1c1ncon1 | -5 | 0.75
19 | O=C(Nc1nnc2ccccn12)c1c[nH]nc1-c1ccccc1 | 4 | -0.43
20 | Cn1cc(NC(=O)N2CCCC[C@@H]2CCc2ccccc2)cn1 | -8 | 1.39
21 | CCOc1cccc(CNC(=O)C2CN3CCCC3CO2)c1 (stereo not given) | 10 | -1.13
22 | Cc1ccn2c(NS(=O)(=O)c3c(Cl)cc(Cl)cc3Cl)nnc2c1 | -9 | 1.38

Row | Structure (SMILES) | % Inhibition [%] | Z score
23 | COc1ccc(CCNC(=O)c2cccc3sc(N4CCCc5ccccc54)nc23)cc1OC | -7 | 0.95
24 | COc1ccc(NC(=O)CC2(N3Cc4ccccc4C3=O)CCN(C(C)=O)CC2)cc1 | -6 | 0.73
25 | CCCN(C)c1nccn2c(=O)n(CC(=O)Nc3ccc(C)cc3)nc12 | 5 | -0.92
26 | CCc1nc(CC(=O)NC(c2ccc(F)cc2)C2CCCO2)cs1 (stereo not given) | -3 | 0.46
27 | C#CCN(C)C(=O)[C@@H](C)c1ccccc1 | -5 | 0.64
28 | COc1ccc(C(=O)N/C(=N/c2cccc(C)c2)N2CCN(C3CCCCC3)CC2)cc1OC | 1 | -0.25
29 | COc1ccc(C(=O)N2c3ncnn3C(c3ccccc3)CC2c2ccc(C)cc2)cc1OC (stereo not given) | 76 | -10.75
30 | O[C@@H]1CCC[C@@H]2CN(Cc3cc(F)cc(F)c3)C[C@@H]21 | -9 | 0.9
31 | CN1c2cccnc2CN(Cc2ccc(Cl)cc2)CC[C@H]1CO | 0 | -0.03
32 | CC[C@H](C)n1nccc1NC(=O)c1ccc2nnnn2c1 | -6 | 0.87
33 | COc1ccccc1N1CCN(C(=O)Cn2c(-c3ccc(F)cc3)nc(C)cc2=O)CC1 | -11 | 0.97
34 | CN1C(=O)CC(C(=O)NC2CCc3nccn3C2)C1c1cccnc1 (stereo not given) | -1 | 0.11
35 | Cc1nc(C)c(-c2cccc(C(=O)N(CCO)Cc3nccs3)c2)s1 | -17 | 2.4
36 | CC[C@]1(O)CCCN(C(=O)c2cncc(O)n2)C1 | -10 | 1.14
37 | O=C(CCN1CCCCC1)c1ccc2c(c1)OCCO2 | -15 | 1.34
38 | CCCCn1nc(C(=O)Nc2cccc(-c3nccs3)c2)ccc1=O | -8 | 1.3
39 | COc1cc(Cl)c(C)cc1NC(=O)Cc1nnc(-c2cnccn2)o1 | -7 | 0.66
40 | CC(C)c1nnsc1CN(C)CCC1(O)CCCC1 | -14 | 3.02
41 | CC(=O)N1CCC2(CC1)NC1(CCCC1)C(=O)N2CC1CC1 | -18 | 1.6
42 | CCN1CCN([C@H](c2ccncc2)c2c(NC(=O)c3cccs3)sc(C)c2C)CC1 | 8 | -1.61
43 | N#C[C@]1(NC(=O)CN2CCC(=O)NC2=O)CCc2ccccc2C1 | -5 | 0.76
44 | CN(CC1(CO)CCOCC1)C(=O)c1ccc2cccc(F)c2n1 | 6 | -0.75

Row | Structure (SMILES) | % Inhibition [%] | Z score
45 | CC(O)CN1CCN(S(=O)(=O)c2ccc3c(c2)OCCO3)C(C)C1 (stereo not given) | -13 | 1.82
46 | CCc1cc(-c2n[nH]c(C)c2-c2nnc(-c3ccccc3)s2)c(O)cc1O | 13 | -1.74
47 | O=C(N[C@@H]1CN(CCCc2ccccc2)C[C@H]1CO)c1cnccn1 | -13 | 2.15
48 | COc1ccc(-n2nc(C(=O)N3CCN(C(C)=O)CC3)c(=O)n(Cc3ccc(F)cc3)c2=O)cc1 | -15 | 1.49
49 | CCCN1CCCN(c2ccc3nncn3n2)CC1=O | -13 | 2.12
50 | CCCCN(CCCNC(=O)C[C@@H]1Nc2ccccc2NC1=O)Cc1ccccc1 | -3 | 0.54
51 | CCn1cc(CN(C)CC2=CCCCC2)cn1 | -13 | 2.23
52 | Cn1cnc(C(=O)N[C@H]2CCCC[C@@H]2F)n1 | -10 | 1.4
53 | Cc1sc2ccccc2c1CNC[C@@H]1C[C@H](CO)N(C)[C@@H]1c1ccccc1F | 2 | -0.23
54 | CC(C)(O)CN(C1CC1)S(=O)(=O)C1(C)CC1 | 5 | -0.98
55 | CN1CCC(=O)Nc2cc(C(=O)N3C[C@@H]4CCCCN4c4ccccc43)ccc21 | -18 | 2.56
56 | CN(C[C@H]1CC1(C)C)C(=O)c1cc(-c2cccc(O)c2)on1 | -20 | 2.47
57 | CC1CN(C(=O)Nc2cc(F)cc(F)c2)CC2(CCCOC2)O1 (stereo not given) | -20 | 2.58
58 | O=C(N[C@H]1CCC[C@@H]1O)c1c(Cl)cccc1Cl | -3 | 0.35
59 | O=C(Cc1ccc(-c2ccccc2)cc1)N(Cc1ccccc1)C1CC1 | -13 | 1.25
60 | Cc1ccc(NS(=O)(=O)N(C)C)c(Cl)c1 | 0 | -0.07
61 | Cc1cccc(NC(=O)CC2CC3CCC2C3)c1 (stereo not given) | 4 | -0.58
62 | O=C(CC1C=CCC1)N1CCOC(CF)C1 (stereo not given) | 6 | -0.73
63 | COc1ccc(C2=NN=C(C)[C@@H]2CC(=O)Nc2ccc(-n3cnnn3)cc2)cc1 | -15 | 1.83
64 | O=C(NCCNc1cccc(Br)c1)c1ccncc1 | -8 | 0.8
65 | COc1ccc(C(=O)N2CCCN(Cc3ccsc3)CC2)cc1 | 5 | -0.67
66 | COc1cc([C@H]2CC(=O)Nc3c2c(C)nn3-c2ncccn2)ccc1O | 31 | -3.54

Row | Structure (SMILES) | % Inhibition [%] | Z score
67 | CNC(=O)Cc1noc(CNC(=O)OC(C)(C)C)n1 | -2 | 0.29
68 | CC[C@H](C)N=C(N)NCC1CCN(C(C)=O)CC1 | -8 | 1.31
69 | O=C1C[C@H](c2nc(-c3cccc(Cl)c3)c[nH]2)CN1C1CC1 | 1 | -0.24
70 | CC(=O)Nc1ccc(C(=O)N2C3C=CCC2CC3)cc1 (stereo not given) | 2 | -0.26
71 | O=C(NCCc1ncc[nH]1)N1CC[C@@](O)(c2ccccc2)[C@H]2CCCC[C@H]21 | -16 | 1.73
72 | Cc1nc(C#N)c(C#N)n1Cc1ncnn1CC(C)C | -15 | 1.3
73 | COc1ccc(CNC(=O)c2ccc3nc(-c4ccc(OC)c(OC)c4)c(-c4ccc(OC)c(OC)c4)nc3c2)cc1 | 33 | -3.97
74 | C[C@@H](CN1CC2(CCN(CCC(=O)N(C)C)CC2)OC1=O)c1ccccc1 | 6 | -0.88
75 | CCOc1ccc(N(CC)S(=O)(=O)N2CCC[C@H](C(=O)Nc3ccc(C)c(F)c3)C2)cc1 | 15 | -1.41
76 | CC(=O)c1ccc(N2CCOCC2)c(-c2ccc(C(=O)N3CCCC3)cc2)c1 | -12 | 2.4
77 | CC(C)c1ccc(-c2cccc(C(=O)NCCCN3CCNC(=O)C3)c2)nn1 | -23 | 3.94
78 | Cc1nnc(C(=O)N(CC2CC2)C(C)C)s1 | -13 | 1.88
79 | CC(=O)Nc1ccc(Nc2cc(C)nc(N3CCCCC3)n2)cc1 | -9 | 0.92
80 | Cc1cnc(NCCN2CCCCCC2)nc1N(C)C | -15 | 1.43
81 | Cn1cccc1[C@@H](O)CNC(=O)C(=O)Nc1ccc(C(F)(F)F)cc1 | -11 | 1.87
82 | C[C@H](NC(=O)CCc1ccccc1)c1nc(-c2ccncc2)cs1 | -5 | 0.57
83 | O=C(O)C(CC1CC1)NC(=O)[C@H]1CC[C@H](c2ccccc2)C1 (stereo not given in full) | -40 | 4.69
84 | COc1ccc(CCc2nnc(NC(=O)Cc3c(F)cccc3Cl)s2)cc1 | 1 | -0.15
85 | O=C(COCC(F)(F)F)N[C@@H]1C[C@H]2CC[C@@H]1O2 | -8 | 1.44
